The text below walks through data of ChEMBL document CHEMBL5308541, “MAIP: An Open-Source Tool to Enrich High-Throughput Screening Output and Identify Novel, Druglike Molecules with Antimalarial Activity” (ACS Med Chem Lett, 2023).

Screen size: about 150,000 compounds; about 540 (0.36%) showed an effect of 50% or more. This is one part of the list.

The subject of this experiment is Plasmodium falciparum. Nature of the experiment: Primary screen in NF54 nanoGlo assay, in single point, at 2uM, 72h; a lower Z score goes with more inhibition. The class given is functional, Erythrocyte. The conditions noted are these: timepoint 72 hour.
With `CCn1nc(CO)c2c1CCN(Cc1cc(C(C)=O)cn1C)C2`, the % Inhibition (commonly the change of the read-out against control, counted positive when it falls) is recorded as -7% and the Z score came to 1.2.

Consider `CC[C@]1(CO)CCCN1C(=O)CCc1cccc(OC(F)F)c1`, for which the “% Inhibition” value was -6% and the Z score was 0.91.

With `Cn1cc(N2CCN(CCc3cc(Cl)cc(Cl)c3)CC2=O)cn1`, the “% Inhibition” value is listed as -2% and the Z score is given as 0.26.

As to `c1cc(NCc2cccc3[nH]ccc23)cc(-c2nnc[nH]2)c1`, the “% Inhibition” value was -4% and the Z score was 0.68.

For `OC1(c2cccc(C(F)(F)F)c2)CCN(c2ccc3cc[nH]c3n2)CC1`, the “% Inhibition” value is on record as 5% and the Z score was -1.08.

Regarding `Cc1cc(C)n([C@@H](C)CC(=O)N2CCN(C(=O)c3ccc(O)cc3)CC2)n1`, the “% Inhibition” value was determined as 2% and the Z score is -0.25.

Regarding `Cc1cc(C(=O)NC2CCCCC2F)ccc1-n1cncn1` (stereo not drawn), the “% Inhibition” value is listed as -7% and the Z score is 1.54.

Regarding `CCn1c2ccccc2c2cc([C@H]3NCCc4c3[nH]c3ccccc43)ccc21`, the “% Inhibition” value is given as 4% and the Z score is -0.91.

As to `Nc1ccc(NC2CCCN(C(=O)CNCC3CCCO3)CC2)cn1` (stereo not drawn), the “% Inhibition” value is recorded as -7% and the Z score worked out at 1.18.

For `CC(C)c1cc(CN(C)C(=O)c2ccc(-c3cnccc3N)cc2)no1`, the “% Inhibition” value is on record as 2% and the Z score is reported as -0.27.

Regarding `COCCN=C(NCCCc1nc2ccccc2[nH]1)N1CCCC1`, the “% Inhibition” value is on record as -9% and the Z score was 1.87.

`CN(C)C(=O)CN1CCC(NC(=O)c2cncc(-c3ccc(N(C)C)cc3)c2)CC1`: the “% Inhibition” value is recorded as -12% and the Z score is given as 2.2.

With `CCN(Cc1cccc(OC2CCCC2)c1)CC1CCN(C2CCN(C)CC2)CC1`, the “% Inhibition” value came out at 20% and the Z score is given as -3.46.

Consider `COc1cccc(-c2cc(C(=O)N[C@H]3CCN(c4ccc(-c5nc(C)no5)cn4)C3)[nH]n2)c1`, for which the “% Inhibition” value is on record as -4% and the Z score is on record as 0.71.

Turning to `Oc1cc(CNCc2cnn3cccnc23)nc2ccc(F)cc12`, the “% Inhibition” value is listed as -7% and the Z score was found to be 1.17.

As for `CN(Cc1ccc(OCCN2CCN(C(=O)[C@H]3CCOC(C)(C)C3)CC2)cc1)Cc1ccc2ncccc2c1`, the “% Inhibition” value was -7% and the Z score was found to be 1.25.

Consider `C[C@](O)(CN1CCC(NCc2ccccc2)CC1)C(F)(F)F`, for which the “% Inhibition” value is -6% and the Z score worked out at 0.96.

Consider `CN1CCC(N2CCC(CNc3cncc(C(N)=O)n3)CC2)CC1`, for which the “% Inhibition” value was -15% and the Z score was 2.59.

For the molecule `CCN(Cc1[nH]c2ccc(Cl)cc2c1C)CC1CCN(C2CCN(C)CC2)CC1`, the “% Inhibition” value was found to be 85% and the Z score is reported as -14.61.

Consider `OC1CCN(C2CCN(Cc3ccc(C(F)(F)F)cc3F)CC2)CC1`, for which the “% Inhibition” value was -7% and the Z score turned out to be 1.16.

`Cc1nnc(NCc2cccnc2)c2nn(-c3ccccc3)c(C)c12`: the “% Inhibition” value is on record as -7% and the Z score was 1.05.

Regarding `Nc1nc(NCC2(N3CCCCC3)CCCCC2)cc(C2CC(N)C2)n1` (stereo not drawn), the “% Inhibition” value is reported as 8% and the Z score was -1.39.

For the molecule `Brc1ccc2[nH]c3c(c2c1)CCCC3NC1CCc2[nH]cnc2C1` (stereo not drawn), the “% Inhibition” value is recorded as 98% and the Z score is -19.51.

As for `c1cc(OCCCN2CCOCC2)ccc1CN1C2CCNCC1CC2` (stereo not drawn), the “% Inhibition” value is recorded as 2% and the Z score is on record as -0.46.

In the case of `Cn1cc(-c2nc(C(=O)NC3CCN(c4ccc(C(F)(F)F)cn4)CC3)cs2)cn1`, the “% Inhibition” value is 22% and the Z score was -3.36.

As for `Nc1ccnc(-c2ccc(C(=O)N3CCCN(C4CCCCC4)CC3)cc2)c1`, the “% Inhibition” value stood at 5% and the Z score was -0.92.

`Cc1n[nH]c(C)c1CC(=O)NC1c2ccccc2CCC1CO` (stereo not drawn): the “% Inhibition” value is reported as -5% and the Z score came out at 0.83.

Regarding `CCCc1cncnc1N1CCC(N2CCN(c3cnccn3)CC2)CC1`, the “% Inhibition” value is -3% and the Z score is 0.56.

As to `CO[C@@H]1C[C@H](CNc2ccncc2C#N)N(c2cc(N(C)C)ncn2)C1`, the “% Inhibition” value is given as -7% and the Z score is reported as 1.36.

Regarding `Nc1nccnc1C(=O)Nc1ccc(-c2cnco2)cc1`, the “% Inhibition” value is -16% and the Z score is reported as 3.42.

As for `N#Cc1cc(NC2CCN(Cc3cccnc3)CC2)nc2ccc(Cl)cc12`, the “% Inhibition” value is listed as 23% and the Z score is -3.97.

`c1cncc([C@H](CNc2ncnc3cc[nH]c23)N2CCCCC2)c1`: the “% Inhibition” value is -4% and the Z score came to 0.73.

Take `CCCN(Cc1ccc(C#N)cc1)S(=O)(=O)Cc1noc(C)n1`: the “% Inhibition” value is given as 5% and the Z score is on record as -0.84.

Regarding `Cc1cc(C(F)(F)F)nc(CCNC(=O)NC[C@H]2CNCCO2)n1`, the “% Inhibition” value was -9% and the Z score was 1.31.

For the molecule `CCOC1CC(C(=O)N2CCOC[C@@H]2CNC(=O)c2cncs2)C1` (stereo partly drawn), the “% Inhibition” value is 0% and the Z score is given as 0.08.

Take `Cc1ocnc1CNC[C@H](O)c1ccc(Cl)c(Cl)c1`: the “% Inhibition” value was found to be 94% and the Z score is given as -18.67.

On to `CCC(C)(C)OC1CN(S(=O)(=O)c2c(C)oc(C)c2C(=O)O)C1`, for which the “% Inhibition” value was -5% and the Z score is 0.74.

As to `CCc1nsc(N2C[C@H](COCC(=O)N(C)C)OC(C)(C)C2)n1`, the “% Inhibition” value is on record as -11% and the Z score was determined as 2.

For `Oc1nc2ccccc2cc1CNCCNc1ncccc1C(F)(F)F`, the “% Inhibition” value turned out to be 5% and the Z score was -0.74.

With `CCN(CC)c1ccc(Nc2cc(C)ncn2)cc1`, the “% Inhibition” value is recorded as -10% and the Z score came out at 1.69.

`CC1CCCCN1C(=O)CN1CCN(CCC2CCCN(C(=O)OC(C)(C)C)C2)CC1` (stereo not drawn): the “% Inhibition” value is -1% and the Z score amounted to 0.22.

For `Cc1nc(C(C)(C)NCc2ncnn2CC(C)C)no1`, the “% Inhibition” value is recorded as -8% and the Z score turned out to be 1.49.

Turning to `CN(C)Cc1cc(NCc2csc3ccc(Cl)cc23)ncn1`, the “% Inhibition” value is reported as 3% and the Z score is on record as -0.51.

On to `C[C@H]1CC(=O)N(Cc2ccc(Br)c3cccnc23)C1=O`, for which the “% Inhibition” value is on record as -5% and the Z score was 1.

With `C[C@H]1C(=O)N(C)CCN1C(=O)c1cccc(-c2ccc3c(ccn3C)c2)c1`, the “% Inhibition” value came out at 1% and the Z score was -0.27.

`c1ccc(Oc2cccc3[nH]ccc23)cc1`: the “% Inhibition” value is listed as -3% and the Z score is 0.68.

With `CNS(=O)(=O)c1cc(-c2cc3c(cc2CO)OCCO3)ccc1C`, the “% Inhibition” value is given as -5% and the Z score is on record as 0.94.

As for `Cc1cccc2[nH]c(CN(C)C(=O)[C@H]3CCCN(C4CCN(C)CC4)C3)nc12`, the “% Inhibition” value is given as 4% and the Z score was -0.74.

In the case of `Cn1cc(O[C@@H]2CCC[C@@H]2NC2CCN(c3ccncc3)CC2)cn1`, the “% Inhibition” value was found to be 10% and the Z score is -1.58.

For `COc1ccc(Nc2ccccc2C(=O)NCCN2CCS(=O)(=O)CC2)cc1`, the “% Inhibition” value is listed as 3% and the Z score is listed as -0.51.

With `Cc1nn(CCNC(=O)N2CCC(c3nc(C(C)C)no3)CC2)c(C)c1C`, the “% Inhibition” value was 2% and the Z score is -0.4.

With `c1ccc2c(CN3CC(n4c(C5CC5)nc5ccccc54)C3)ccnc2c1`, the “% Inhibition” value came out at 0% and the Z score is -0.03.

`C[C@]1(CCc2ccccc2)CCN(Cc2ncccc2C(=O)O)C1`: the “% Inhibition” value amounted to 0% and the Z score is recorded as 0.09.

For the molecule `CNc1ncc(-c2cc(C(=O)N3CCN(C)C(=O)[C@@H]3C)c3ccc(F)cc3n2)cn1`, the “% Inhibition” value is listed as -4% and the Z score came out at 0.62.
